# ± gives the standard error. Variants at the floor of the assay are shown more often than the library holds them.
# B1: glmS ribozyme (parent)
# chain: AUAAAAGCGCCAGAACUACAGAAAUGUAGUUGACGAGGAGGAGGUUUAUCGAAUUUUCGGCGGAUGCCUCCAAA
# Columns and labels:
# Settings in all cases: with glucosamine-6-phosphate
# glucosamine-6-phosphate [1] = variants of: B1; experiment: self-cleavage kobs at 640 uM GlcN6P; higher = faster cleavage; RNA array
# In short: (§1)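 kobs was derived by fitting per-tile medians to one- or two-exponential decays after normalising signals to baseline and to non-cleaving reference variants. Those signals came from barcoded ribozyme variants transcribed in situ by E. coli RNA polymerase on sequenced MiSeq chips, followed through a hybridised Cy3 probe at 37 °C and imaged over ~14 h. Glucosamine-6-phosphate (40 μM to 10 mM) in HEPES/KCl/Mg(OAc)2 buffer was flowed in. Weighted Michaelis–Menten fits across concentrations then gave kcat and KM.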
# glucosamine-6-phosphate [2] = variants of: B1; experiment: self-cleavage kobs at 160 uM GlcN6P; higher = faster cleavage; RNA array
# In short: as §1
# glucosamine-6-phosphate [3] = variants of: B1; experiment: self-cleavage kobs at 2500 uM GlcN6P; higher = faster cleavage; RNA array
# In short: as §1
# glucosamine-6-phosphate [4] = variants of: B1; experiment: self-cleavage kobs at 10000 uM GlcN6P; higher = faster cleavage; RNA array
# In short: as §1
Variant,self-cleavage kobs at 640 uM GlcN6P (glucosamine-6-phosphate [1]) [s⁻¹],self-cleavage kobs at 160 uM GlcN6P (glucosamine-6-phosphate [2]) [s⁻¹],self-cleavage kobs at 2500 uM GlcN6P (glucosamine-6-phosphate [3]) [s⁻¹],self-cleavage kobs at 10000 uM GlcN6P (glucosamine-6-phosphate [4]) [s⁻¹]
C8U U56A U65A C70G,< 1e-05,,,
G9U U31A U65G,< 1e-05,< 1e-05,< 1e-05,
C11G G35U C61G,< 1e-05,,,
G9A C16G G43U A52G A53U,< 1e-05,,,
G7C C10G A15C C16A U54A,< 1e-05,,< 1e-05,
C10A U49C C71G,< 1e-05,,,
G7A U55A,< 1e-05,,,
C10A A42G G51U,< 1e-05,,,< 1e-05
G9C C16A A33U G41C G60U,< 1e-05,,< 1e-05,
C8G G13C G40A U56A G59U,< 1e-05,,,
C11G G38C A42C U56C C58G,< 1e-05,,< 1e-05,
G7U A14U A33C G38A U54A,< 1e-05,,,
G9C U56A G62U,< 1e-05,,,
G7U G9C U31C U45C,< 1e-05,,< 1e-05,
C8U G9U C67A C71U,< 1e-05,,,
G7A G51C,< 1e-05,< 1e-05,,
C8G G13C A33G,< 1e-05,< 1e-05,< 1e-05,
C11A G13C G35U,< 1e-05,,< 1e-05,
C8U U31G C34U U47A,< 1e-05,,,
G9U U46G C58G,< 1e-05,,< 1e-05,
C10G A12U U31A A36U C71U,< 1e-05,,,

Variant,self-cleavage kobs at 640 uM GlcN6P (glucosamine-6-phosphate [1]) [s⁻¹],self-cleavage kobs at 160 uM GlcN6P (glucosamine-6-phosphate [2]) [s⁻¹],self-cleavage kobs at 2500 uM GlcN6P (glucosamine-6-phosphate [3]) [s⁻¹],self-cleavage kobs at 10000 uM GlcN6P (glucosamine-6-phosphate [4]) [s⁻¹]
C10A A12G A15C G44C,< 1e-05,,,
G9U G29A U46A G51U C67U,< 1e-05,,,
C11A A48C U65C C70G,< 1e-05,< 1e-05,,
C8A A22C C71A,< 1e-05,,< 1e-05,
G7U G9A C16U G29A A53U G59A G66A U69G,< 1e-05,< 1e-05,,
G7U A52U C61U,< 1e-05,,,
G7U G29C U56G G62A,< 1e-05,,,
G7U G13U A15U C50A G51A G60U C67A C71A,0.000375 ± 0.00012,,,
C10U G35C G62C,< 1e-05,,< 1e-05,
G9U G13A,< 1e-05,< 1e-05,,< 1e-05
C8G A48U C61U C70U,< 1e-05,,< 1e-05,
C8U A12C G43C U49C,< 1e-05,< 1e-05,< 1e-05,< 1e-05
G7U G60A,< 1e-05,,< 1e-05,< 1e-05
C10U U47G U56A C58U,< 1e-05,,,
G9U G60A,< 1e-05,,< 1e-05,
C11A A15G A39C G40U G51C,< 1e-05,< 1e-05,< 1e-05,
G9U A42C G43A G66C,< 1e-05,< 1e-05,< 1e-05,
C10A C34A,< 1e-05,< 1e-05,,< 1e-05
C11G A12G U31G G44U C50G G66A,< 1e-05,,,
G9U U56A G63U A64U,< 1e-05,,,
C10U A33U A52G A53U,< 1e-05,,< 1e-05,

Variant,self-cleavage kobs at 640 uM GlcN6P (glucosamine-6-phosphate [1]) [s⁻¹],self-cleavage kobs at 160 uM GlcN6P (glucosamine-6-phosphate [2]) [s⁻¹],self-cleavage kobs at 2500 uM GlcN6P (glucosamine-6-phosphate [3]) [s⁻¹],self-cleavage kobs at 10000 uM GlcN6P (glucosamine-6-phosphate [4]) [s⁻¹]
C8A U30A G32U C34U G35A U56A G66A,< 1e-05,,,< 1e-05
G9C C67G C71A,< 1e-05,,< 1e-05,
C10A A36G G38C G44A C61U,< 1e-05,,,< 1e-05
G9C A12G C16G G37C,< 1e-05,,< 1e-05,
C11A A15C A39U G40C G51A C70U,< 1e-05,< 1e-05,< 1e-05,< 1e-05
C10U U31A A39C,< 1e-05,,< 1e-05,
G7U C8G G38C,< 1e-05,,,
G7A U31G G59C C67A,< 1e-05,,< 1e-05,
C10U A42C,< 1e-05,< 1e-05,< 1e-05,
C8U G37C U47G A53U G62C,< 1e-05,< 1e-05,< 1e-05,
C8U G35A A42G,< 1e-05,< 1e-05,,< 1e-05
C8G U47G G62A,< 1e-05,< 1e-05,< 1e-05,
G9C A12C C19A G51U U54G G63C C70G,< 1e-05,,< 1e-05,
G7U C11U U45G C71A,< 1e-05,,,
C8A C34A U57C,< 1e-05,,,
C10G A14G A36C G62U,< 1e-05,,,
C10U G29U G35U,< 1e-05,,,
C8U C34U A39C,< 1e-05,,< 1e-05,
G9C A12C G29C G37U,< 1e-05,,,
C11G U30C G62A C71G,< 1e-05,,,
